Experimental data from PubChem BioAssay AID2675 (National Center for Advancing Translational Sciences (NCATS), 2010).
About 100 (0.036%) of roughly 280,000 compounds were called active. The shares of active, inactive and inconclusive entries below differ from those in the screen. The call rests on the fitted dose curve; in most records, active means well fitted inhibition curve with a large enough effect in the signal ratio, with a control signal flat (not every such curve was filed as active); inconclusive means small, poorly fitted or top-dose-only effect, or effect the other way, or a change in a side signal; inactive means no such curve, though single readings can be large or run the other way; the % refers to the signal ratio. Potencies of inconclusive entries are doubtful fits and often do not repeat. “Side channel” marks fits to a control or component signal instead of the main read-out.

These compounds were tested against Muscleblind-like protein 1 (Homo sapiens) (UniProt Q9NR56) (assay: qHTS Assay for Inhibitors of MBNL1-poly(CUG) RNA binding). Conditions: TR-FRET MBNL1-His/biotin-(CUG)12 binding, 665/545 ratio; series mostly up to 57.5 µM.
UniProt Q9NR56, sequence (Q9NR56 whole entry, looked up): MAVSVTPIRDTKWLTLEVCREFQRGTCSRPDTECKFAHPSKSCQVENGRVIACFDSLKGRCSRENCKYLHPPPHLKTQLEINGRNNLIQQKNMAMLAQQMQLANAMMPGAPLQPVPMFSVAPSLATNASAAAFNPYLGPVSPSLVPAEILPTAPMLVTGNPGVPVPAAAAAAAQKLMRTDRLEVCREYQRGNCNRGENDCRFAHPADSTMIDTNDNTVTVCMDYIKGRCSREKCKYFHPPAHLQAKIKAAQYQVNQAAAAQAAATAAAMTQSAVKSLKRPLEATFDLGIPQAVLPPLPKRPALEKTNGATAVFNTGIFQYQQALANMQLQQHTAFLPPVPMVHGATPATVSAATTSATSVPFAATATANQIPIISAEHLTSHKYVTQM
How it was run: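 Compound titration spanned 92 nM–58 uM against the MBNL1-His/biotin-(CUG)12 complex. After 60 min at room temperature with 5 nM streptavidin-XL665 and 0.055 ng/ul terbium anti-His, ratiometric 665/545 nm emission (Ex 340 nm) normalized to controls.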
Potency means the concentration at half of the fitted maximal effect; tags describe the fitted curve by direction and shape or compound fluorescence and quenching.

| Structure (SMILES) | Potency |
| --- | --- |
| O=C(Nc1ccccc1C(=O)Nc1ccncc1)c1ccc([N+](=O)[O-])cc1 | inconclusive: 7.94 µM [quencher, partial curve] |
| COc1ccc2c(c1)C(=NN)c1cc(OC)ccc1-2 | inconclusive: 17.8 µM [quencher, side channel, partial curve] |
| COc1ccc(/C=C\C(=O)CC(O)(c2ccccc2)C(F)(F)F)cc1 (stereo unspecified) | inactive |
| CS(=O)(=O)N1CCN(c2ccc([N+](=O)[O-])c(NCc3cccnc3)c2)CC1 | inconclusive: 11.2 µM [quencher, side channel, partial curve] |
| Nc1ncnc2oc(-c3ccco3)c(-c3ccco3)c12 | inconclusive: 20 µM [quencher, side channel, single point] |
| O=C(CN1CCN(c2ccc([N+](=O)[O-])cc2Cl)CC1)N1CCOCC1 | inconclusive: 44.7 µM [quencher, side channel, partial curve, poor fit] |
| O=C(O)c1ccc2c(c1)C(=O)N(c1ccccc1-c1ccccc1)C2=O | inconclusive: 28.2 µM [quencher, side channel, partial curve] |
| COc1ccc(C(=O)c2sc(Nc3ccccc3)c(C(=O)Nc3ccc(OC)c(OC)c3)c2N)cc1 | inconclusive: 20 µM [quencher, side channel, single point] |
| CCOC(=O)C1=C(C)OC(N)=C(C#N)C1c1c(C)nn(-c2ccccc2)c1Cl (stereo unspecified) | inconclusive: 50.1 µM [inhibitor, single point] |
| COCCn1c(N)c(C(=O)OCc2ccccc2)c2nc3ccccc3nc21 | inconclusive: 35.5 µM [quencher, side channel, partial curve] |
| O=C(CCCn1c(SCC(=O)NC2CCCCC2)nc2ccccc2c1=O)NCC1CCCO1 (stereo unspecified) | inactive |
| Cc1ccccc1NC(=O)c1cccc2nccnc12 | inconclusive: 3.98 µM [quencher, side channel, full curve, poor fit] |
| O=C(Nc1ccc(O)cc1)c1cc2ccccc2c(=O)s1 | inconclusive: 28.2 µM [quencher, side channel, partial curve] |
| Nc1ccc2c(c1Cl)C(=O)c1ccc(N)c(Cl)c1C2=O | inconclusive: 12.6 µM [quencher, side channel, partial curve] |
| COc1ccccc1NC(=O)CNC(=O)c1ccc([N+](=O)[O-])cc1 | inconclusive: 15.8 µM [quencher, partial curve] |
| Nc1ccc2oc3ncccc3c(=O)c2c1 | inconclusive: 12.6 µM [quencher, side channel, partial curve] |
| CCSc1nnc2c(n1)OC1(CCCC1)Nc1ccccc1-2 | inconclusive: 22.4 µM [quencher, side channel, partial curve] |
| O=C(c1ccco1)N1N=C(c2ccc3nccnc3c2)CC1c1ccccc1 (stereo unspecified) | inconclusive: 20 µM [quencher, side channel, partial curve] |

| Structure (SMILES) | Potency |
| --- | --- |
| CN1CCN(c2c(F)cc3c(=O)c(C(=O)O)cn4c3c2SCC4)CC1 | inconclusive: 15.8 µM [quencher, side channel, partial curve, poor fit] |
| CN(C)C(CNc1ccc(C(N)=O)cc1[N+](=O)[O-])c1ccccc1 (stereo unspecified) | inconclusive: 14.1 µM [quencher, side channel, partial curve] |
| O=C1Nc2ccc(S(=O)(=O)NCc3ccccn3)c3cccc1c23 | inconclusive: 28.2 µM [quencher, side channel, partial curve] |
| O=C(Nc1ccc(N2CCOCC2)cc1)Nc1ccc2nc(-c3ccco3)c(-c3ccco3)nc2c1 | inconclusive: 39.8 µM [quencher, side channel, single point] |
| Nc1nn(S(=O)(=O)c2ccccc2)cc1-c1cccc([N+](=O)[O-])c1 | inconclusive: 14.1 µM [quencher, side channel, partial curve] |
| C/C(=N/Nc1ccccc1[N+](=O)[O-])c1ccc([N+](=O)[O-])cc1 | inactive |
| O=C(O)c1ccc(N=Nc2c(-c3ccccc3)[nH]oc2=O)cc1 | inconclusive: 3.55 µM [quencher, side channel, single point] |
| COCCn1c(SCC(=O)Nc2cccc(NC(C)=O)c2)nc2c([nH]c3ccccc32)c1=O | inconclusive: 100 µM [inhibitor, single point] |
| Cc1cc(C(=O)N2CCN(c3ccc([N+](=O)[O-])cc3)CC2)c(C)o1 | inconclusive: 39.8 µM [quencher, single point] |
| COc1ccc(-c2cc(C(F)(F)F)n3nc(C(=O)Nc4c(C)n(C)n(-c5ccccc5)c4=O)cc3n2)cc1 | inconclusive: 2.82 µM [quencher, side channel, full curve, poor fit] |
| O=C(O)CCCN1C(=O)c2ccc(Oc3cccc([N+](=O)[O-])c3)cc2C1=O | inconclusive: 14.1 µM [quencher, side channel, partial curve] |
| COc1ccc(NC(=O)c2ccc3c(c2)C(=O)N(Cc2cccnc2)C3=O)c(OC)c1 | inconclusive: 2 µM [quencher, side channel, partial curve] |
| CCn1c(C)cc(/C=C2/SC(=O)N(C(C)C(=O)OC)C2=O)c1C (stereo unspecified) | inactive |
| CC(=O)Nc1ccc(NC(=O)C(=O)c2cn(CC(=O)N3CCCCC3)c3ccccc23)cc1 | inconclusive: 3.16 µM [quencher, side channel, full curve, poor fit] |
| Nc1c(C(=O)O)cnn1-c1ccc([N+](=O)[O-])cc1 | inconclusive: 12.6 µM [quencher, side channel, partial curve] |
| Cc1cc(N2CCN(Cc3ccc4c(c3)OCO4)CC2)n2ncnc2n1 | inconclusive: 8.91 µM [quencher, side channel, single point] |
| CCCS(=O)(=O)c1nc(S(=O)(=O)c2ccc(C)cc2)c(N2CCN(CCO)CC2)s1 | inactive |
| CCOc1ccc(/C=C2\NC(=S)NC2=O)cc1 | inconclusive: 14.1 µM [quencher, side channel, partial curve] |
